Data taken from ChEMBL document CHEMBL4888484, “Replenishing the malaria drug discovery pipeline: Screening and hit evaluation of the MMV Hit Generation Library 1 (HGL1) against asexual blood stage Plasmodium falciparum ,using a nano luciferase reporter read-out” (2022).
Out of some 150,000 compounds screened, about 540 (0.36%) showed an effect of 50% or more. Some of the results follow.

Each compound was assayed on Plasmodium falciparum (assay: Primary screen in NF54 nanoGlo assay, in single point, at 2uM, 72h; a lower Z score goes with more inhibition). Settings: timepoint 72 hour.
Assay type: functional, Erythrocyte

| SMILES | % Inhibition [%] | Z score |
| --- | --- | --- |
| O=C(CCCOc1ccccc1)N1CCC[C@H](c2nnc[nH]2)C1 | -13 | 1.78 |
| CCn1cc(C(=O)OCCNC(=O)c2ccn[nH]2)cn1 | -5 | 0.75 |
| Cc1nc2c3c(ccc2s1)CCCC3 | -34 | 4.05 |
| c1ccc(CN2Cc3nc[nH]c3C[C@H]2c2nc(-c3ccc4ccccc4c3)no2)cc1 | 4 | -0.57 |
| O=C(Nc1cc(Cl)ccc1NC1CC1)c1c[nH]c(=O)c(Cl)c1 | 2 | -0.25 |
| CO[C@@H](C)c1nsc(N2CCC(NCc3ccccc3)CC2)n1 | -5 | 0.56 |
| CC1(C)NC(=O)N(CCCN2CCOCC2C2CCCCC2O)C1=O (stereo not given) | -10 | 2.02 |
| CC(C(=O)N1CCc2ccccc21)N1CCCC(c2ccn[nH]2)C1 (stereo not given) | -8 | 1.18 |
| Cc1ncc(CN2CCC(NC(=O)C(C)C3CCCC3)C(C)C2)s1 (stereo not given) | -11 | 2.14 |
| O=C1CC(CC2CC2)=NN1[C@H]1CCCOC1 | -6 | 1.04 |
| CCc1nn(C)c(NC(=O)[C@@H](N)C2CCCCC2)c1CC | -5 | 0.84 |
| COCC(=O)N1CCc2cc(NC(=O)c3ccncn3)ccc21 | -6 | 0.69 |
| CCN(c1nc2c(s1)c(C)nn2C)C1CCOCC1 | -23 | 2.28 |
| Cc1c(NC(=O)CN2C(=O)N[C@]3(CCc4ccccc4C3)C2=O)c(=O)n(-c2ccccc2)n1C | -6 | 0.83 |
| c1ccc(-c2nc(N(c3ccccc3)c3ccccc3)s[n+]2-c2ccccc2)cc1 | -3 | 0.31 |
| CC(CC(C)C(c1ccccc1)c1ccccc1)NCCc1ccccc1 (stereo not given) | 6 | -0.96 |
| c1cc2nccc(-c3nc([C@@H]4CCCO4)no3)c2cn1 | 0 | 0 |
| CCc1nc(-c2ccc(O[C@H]3CCN(C(=O)c4ccc(F)cc4)C3)cc2)no1 | 33 | -3.7 |
| CCCC(=O)N1CCC[C@H]1C(=O)OCc1nc(C)c(C)o1 | 0 | 0.05 |
| O=C(c1cccnc1/C=C/C1CCCCC1)N1C[C@@H]2CC[C@H]1C2 | -13 | 1.28 |
| Cc1ccc(-c2n[nH]cc2[C@@H]2NC(=O)c3cccnc3N2)o1 | -7 | 0.86 |
| Cc1ccc(CN(C)C(=O)c2ccc3c(=O)n4c(nc3c2)CCCCCC4)c(C)c1 | 5 | -0.69 |

| SMILES | % Inhibition [%] | Z score |
| --- | --- | --- |
| C=CCNC(=O)c1csc(-c2ccc(OCc3ccc(Cl)c(Cl)c3)c(OC)c2)n1 | 6 | -0.9 |
| Cc1cccc(Cc2c(C)nc(C(C)C)nc2N2CCN(C(=O)c3cccs3)CC2)c1 | -14 | 1.38 |
| O=C(c1ccco1)N(Cc1ccc(-c2ccccc2)cc1)Cc1ccc2ccccc2n1 | 5 | -0.59 |
| O=C(N[C@H]1CCN(c2nccs2)C1)c1cccs1 | -8 | 1.59 |
| FC(F)Cn1ccc(NCc2nc(C(F)(F)F)n3c2CCCC3)n1 | -11 | 1.49 |
| NC1CCOC(C2CCN(C(=O)CC3CCCc4ccccc43)CC2)C1 (stereo not given) | -1 | 0.25 |
| O=C(NCCc1nc2ccccc2[nH]1)[C@H]1CCS(=O)(=O)C1 | -3 | 0.32 |
| CC(=O)N1CCC(CNc2ncnc3c2cnn3C(C)(C)C)CC1 | -4 | 0.43 |
| Cc1nc(CCCN2CCN(C(C)C)CC2)cs1 | -6 | 0.55 |
| O=C1CCCc2c(OCc3nnnn3-c3ccccc3)cccc21 | -12 | 1.23 |
| CC1=C(C(=O)N2CCC3(CCCCCC3)C2)OCCO1 | -8 | 1.17 |
| COc1ccc(C(=O)N2CCC[C@@]3(C2)Nc2cccnc2N=C3NC2CCCC2)cn1 | 34 | -3.8 |
| CCC[C@H](NC(=O)CN(c1ccc(C)cc1)S(=O)(=O)N(C)C)c1cccs1 | -24 | 2.16 |
| Cc1ccc(C(=O)N(Cc2ccccc2)c2ccccc2)cn1 | -5 | 0.49 |
| Cc1c(Cl)cccc1-n1nc(C)c2c(C(F)(F)F)cc(OCc3ccc4nonc4c3)nc21 | -1 | 0.12 |
| Cc1cccc2nc(N(C)Cc3nnc4c(=O)n(C)ccn34)sc12 | -14 | 1.78 |
| CN1CCC(n2nc(-c3ccco3)nc2Cn2ccccc2=O)CC1 | 10 | -1.33 |
| COc1ccc(C(=O)Nc2ccc3n(c2=O)C[C@H]2C[C@@H]3CN(S(=O)(=O)c3ccc(C)cc3)C2)cc1 | -12 | 1.51 |
| COc1ccc(-c2csc(N3CCC(c4ccccc4)CC3)n2)cc1 | -3 | 0.57 |
| Cn1cc(-c2nccnc2CNC(=O)C(C)(C)C)cn1 | -14 | 1.55 |
| CN1CCC[C@H](c2nnc3sc(-c4ccc(OCc5ccccc5)cc4)nn23)C1 | 33 | -0.74 |
| CCOc1ccc(-c2nc(CN3CC[C@H](CN4CCOCC4)C3)co2)cc1 | -10 | 1.29 |

| SMILES | % Inhibition [%] | Z score |
| --- | --- | --- |
| O=C(CCc1cc2n(n1)CCN(C(=O)Nc1cccc(F)c1)C2)NC1CC1 | -18 | 1.79 |
| Cc1nnc(-c2ccccc2-c2cc(F)cc3cccnc23)o1 | -7 | 0.96 |
| C[C@]1(C#N)CCCN(C(=O)Cc2ccsc2)C1 | -12 | 1.65 |
| CCn1nc(CC(C)C)cc1C(=O)N1C[C@@H](CN2CCOCC2)[C@@H](CO)C1 | -8 | 1.26 |
| CC[C@H](NC(=O)c1cncn1C)c1cnn(C)c1 | 0 | 0.07 |
| Cc1c(O)nc(CCN(C)C(=O)CCc2cccc(Cl)c2)[nH]c1=O | -17 | 1.86 |
| Fc1ccccc1CN(Cc1cnc2ccccn12)C1CCOCC1 | -4 | 0.47 |
| CC(C)(O)Cn1nnc(Cc2cccc(Br)c2)n1 | -7 | 0.92 |
| CCc1noc(C)c1C(=O)N1CCO[C@H](c2nccs2)C1 | -10 | 1.31 |
| O=C(CC1CCCC1)N1CC[C@@]2(CCCN(Cc3ccc(F)c(F)c3)C2=O)C1 | -3 | 0.46 |
| CC(C)C1CCCC(NCc2nncn2C2CC2)CC1 (stereo not given) | -9 | 1.4 |
| Cc1ccc(S(=O)(=O)N(OS(=O)(=O)c2ccccc2)c2ccccc2)cc1 | -16 | 1.78 |
| CCCC(CCC)C(=O)Nc1cccc(Br)c1 | -44 | 5.14 |
| Nc1c2c(-c3ccc(F)cc3F)nc(NC3CC3)nc2nn1-c1ccc(Cl)cc1 | -20 | 2.19 |
| CO/C(=N/C(=O)c1cccc(F)c1)NCCN1CCCCC1 | -5 | 0.97 |
| CC(C)CN(c1ncnc2c1cnn2C)C1CC1 | -8 | 1.26 |
| COCC1(C)CN(C(=O)NCC(C)(C)c2ccc(C)cc2C)C1 | -6 | 1.14 |
| C[C@@H](Cc1csc2ccccc12)NC(=O)c1ccc(Cl)s1 | -4 | 0.47 |
| Cc1nc(C)c(C(=O)N(c2cnc3ccccc3c2)C(C)C)s1 | -16 | 1.64 |
| CCc1ccc(CN2CCN(c3ccnc4nncn34)CC2)cc1 | -6 | 0.63 |
| C=CCn1ccnc1-c1ccc(C)c(F)c1F | -1 | 0.17 |
| Cc1cc(F)cc(C(=O)NCCOC(N)=O)c1 | -1 | 0.11 |

| SMILES | % Inhibition [%] | Z score |
| --- | --- | --- |
| NS(=O)(=O)c1ccc(CCNC(=O)C2C3CCC(C3)N2C(=O)c2ccccc2)cc1 (stereo not given) | -8 | 1.42 |
| Cn1cnnc1-c1cncc(NC(=O)c2ccc(Cl)cn2)c1 | -22 | 3.66 |
| CC(C)(C)OC(=O)C1CCN(c2cc(N3CCCC3)ncn2)CC1 | -16 | 2.67 |
| O=C(Cc1ccc(Cl)cc1)N[C@@H]1CC=CCC1 | 13 | -1.78 |
| O=C(NCCc1ccccn1)C1Cc2cc(C(F)(F)F)ccc2N2CCN(C3CCCC3)CC12 (stereo not given) | -3 | 0.39 |
| Cc1cnccc1Cn1ccc(-c2cccc(-c3nccs3)c2)n1 | -6 | 1.09 |
| Cc1cc(N(C)C)n2nc(CN3CCN(c4ccccc4Cl)CC3)nc2n1 | 10 | -1.25 |
| COc1cccc(-c2cc(C(F)(F)F)n3nc(C(=O)Nc4cnn(C(C)C)c4)cc3n2)c1 | 32 | -3.61 |
| Cc1cc(C(=O)N2CC[C@@H](N3CCOCC3)[C@H]2C)nc(C(F)(F)F)n1 | -6 | 0.81 |
| N#Cc1ccccc1OCc1csc(-c2ccccn2)n1 | 34 | -4.33 |
| O=C1Nc2ccccc2Nc2nc(-c3cccnc3)ccc21 | -9 | 1.65 |
| COc1ccc(NC(=O)CN(C)CC(N)=O)c(OC)c1 | -4 | 0.82 |
| CCn1c(CN2CCC(N3C(=O)O[C@H]4CNC[C@H]43)CC2)nc2cc(F)ccc21 | 2 | -0.21 |
| Cc1noc(COCC(=O)N2CC[C@H](C)C2)n1 | 11 | -1.41 |
| Cc1ccc(C2=C[C@@H](c3ccccc3)n3nnnc3N2CC(=O)NC2CCCCC2)cc1 | -3 | 0.27 |
| O=C(CN1CCCCC1=O)NC[C@H]1CCOC1 | -4 | 0.63 |
| O=C(Cn1cc(C(=O)c2ccc(F)cc2)nn1)Nc1ccc2c(c1)OCO2 | -3 | 0.24 |
| CC(C)n1nnnc1Cn1nc(C(F)(F)F)ccc1=O | -10 | 1.38 |
| COCCC(=O)N1C[C@H]2CC[C@@H](C1)N(Cc1c(C)noc1C)C2=O | -8 | 1.3 |
